Source: patent US20230201183A1, “METHODS TO […] ENHANCE MULTIPLE […] PROTEOSTASIS […] TO TREAT NEURODEGENERATION AND STORAGE DISEASES” (Northwestern University, priority 2021, published 2023)

Test system: H4 α-syn overexpressing cells
Conditions: higher concentrations or longer incubation periods

With `O=C1CN(/N=C/c2ccc(-c3ccc([N+](=O)[O-])cc3)o2)C(O)=N1` [DANT, 1-[(E)-[5-(4-nitrophenyl)furan-2-yl]methylideneamino]imidazolidine-2,4-dione] the cell toxicity was “observed cell toxicity”.
